Laboratory results taken from PubChem BioAssay AID1259400 (National Center for Advancing Translational Sciences (NCATS), 2018).
The whole screen tested about 350,000 compounds, of which about 2,100 (0.6%) were called active. Inconclusive results, whose numbers are uncertain, are shown with a selection of clear calls.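 Rule for the calls: active = activity change of -60% or lower, but not beyond a set lower limit; inconclusive = change between -60% and -40%, or beyond the set limit; inactive = change above -40%.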

molecular target: Relaxin receptor 1 (Homo sapiens) (UniProt Q9HBX9); assay: qHTS Assay for Antagonists of the Relaxin Receptor RXFP1; conditions: HEK293-RXFP1, relaxin-stimulated cAMP HTRF, 30 min; at 57.5 µM; stronger effect = lower value
Chain of UniProt Q9HBX9 (Q9HBX9 whole entry, looked up): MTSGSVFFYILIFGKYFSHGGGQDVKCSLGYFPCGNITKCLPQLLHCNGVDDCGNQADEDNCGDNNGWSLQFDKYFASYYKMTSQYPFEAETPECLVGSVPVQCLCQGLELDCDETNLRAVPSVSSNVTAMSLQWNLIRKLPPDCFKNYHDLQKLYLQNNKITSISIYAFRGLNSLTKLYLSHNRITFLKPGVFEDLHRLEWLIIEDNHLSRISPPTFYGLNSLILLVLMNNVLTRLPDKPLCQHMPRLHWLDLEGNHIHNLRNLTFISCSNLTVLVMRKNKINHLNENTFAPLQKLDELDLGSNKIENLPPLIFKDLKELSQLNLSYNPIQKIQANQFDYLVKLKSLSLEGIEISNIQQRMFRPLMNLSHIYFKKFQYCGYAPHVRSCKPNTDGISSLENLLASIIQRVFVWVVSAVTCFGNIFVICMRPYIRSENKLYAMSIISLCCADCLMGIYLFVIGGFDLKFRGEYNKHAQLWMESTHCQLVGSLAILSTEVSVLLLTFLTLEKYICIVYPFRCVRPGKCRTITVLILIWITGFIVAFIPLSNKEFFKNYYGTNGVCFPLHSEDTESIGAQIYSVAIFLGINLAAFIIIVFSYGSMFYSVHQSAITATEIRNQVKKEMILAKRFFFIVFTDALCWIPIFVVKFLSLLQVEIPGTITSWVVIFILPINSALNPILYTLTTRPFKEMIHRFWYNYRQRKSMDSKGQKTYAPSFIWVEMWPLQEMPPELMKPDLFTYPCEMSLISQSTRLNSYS
% is set by controls: 0 for no effect and ±100 for the full control effect.

Row | SMILES | activity change, negative = inhibition
1 | COc1ccccc1C(=O)O/N=C(\N)c1ccccn1 | inactive: -25.3%
2 | OC(COc1cc(Cl)c(Cl)cc1Cl)CN1CCN(c2ncccn2)CC1 (stereo unspecified) | inconclusive: -44.5%
3 | O=C(CCSc1ccccc1)OCn1nnc2ccccc2c1=O | inconclusive: -44.2%
4 | C=CCOc1cc(Cl)ccc1C(=O)NCCN(CC)CC | inactive: -10.8%
5 | O=C(NCCc1ccccc1)c1c2c(nc3ccccc13)C(=O)N(C1CCCCC1)C2 | inconclusive: -48.7%
6 | Cc1ccc(C(c2ccc(C)o2)c2cccc([N+](=O)[O-])c2O)o1 | inconclusive: -47.4%
7 | COc1ccccc1C(=O)Nc1ccccc1C(=O)OCc1cc(=O)n2ccsc2n1 | inactive: -9.23%
8 | CCOc1ccc(-c2cc(NC(=O)Nc3ccccc3Cl)c(C(=O)OC)s2)cc1 | inactive: -10.1%
9 | O=C(Nc1nc(-c2ccc(S(=O)(=O)N3CCCCCC3)cc2)cs1)c1ccccc1 | inactive: -5.99%
10 | c1ccc2c(C3=NNC(=NC4CC4)SC3)c[nH]c2c1 | inactive: 0.581%
11 | Cc1ccc(/C=C2\SC(=S)N(/N=C/c3cc([N+](=O)[O-])ccc3O)C2=O)o1 | inconclusive: -45.5%
12 | O=C(c1cc(Sc2cccc(Cl)c2)nc2ccccc12)N1CCN(c2ccccn2)CC1 | inconclusive: -58.3%
13 | COc1ccc(-c2cn3nc(N4CCCC(C(=O)NCCCOC(C)C)C4)sc3n2)cc1 (stereo unspecified) | inconclusive: -42.3%
14 | Cc1ccc(-n2[nH]c(C)c(N=Nc3cccc(-c4cccc(C(=O)O)c4)c3O)c2=O)cc1C | inconclusive: -41.4%
15 | Cc1ccc(C(=O)Nc2nc(-c3ccco3)c(-c3ccco3)s2)o1 | active: -80.8%
16 | O=C(COc1ccc(F)cc1)Nc1ccc(Cl)c(-c2nc3ccccc3[nH]2)c1 | inconclusive: -42.4%
17 | COc1ccc(CCN(/C=C2\Sc3ccccc3C2=O)C(C)=O)cc1OC | inconclusive: -45%
18 | COc1ccc(CN2CCN(c3ncnc4scc(-c5ccc(F)cc5)c34)CC2)cc1 | active: -60.6%
19 | Cc1c(CN2CCC(CO)(Cc3cccc(C(F)(F)F)c3)CC2)c2ccccc2n1C | inconclusive: -48.1%
20 | Cc1[nH]c2ccccc2c1C(=O)COC(=O)c1nccnc1N | active: -66.3%
21 | Cc1ccc2c(c1)N(C(=O)N1CCC(C(=O)NCc3ccccc3F)CC1)CC(C)O2 (stereo unspecified) | inconclusive: -45.6%
22 | Cc1ccc(-n2[nH]c(C)c(/C=N/Nc3ccc([N+](=O)[O-])cc3[N+](=O)[O-])c2=O)cc1 | active: -73.9%

Row | SMILES | activity change, negative = inhibition
23 | CC1=C(C#N)C(c2ccc(O)cc2)C2=C(CCCC2=O)N1 (stereo unspecified) | inconclusive: -40.9%
24 | CSc1nc(N)nc(SCC(=O)Nc2ccc(Cl)cc2)c1C#N | inactive: -6.13%
25 | Cc1ccc(CNCc2ccccc2Cl)cc1 | inconclusive: -54.3%
26 | Cc1cccc(S(=O)(=O)N2CN(CC3CCCO3)c3nc4ccccc4nc32)c1 (stereo unspecified) | inconclusive: -45.3%
27 | O=C(Cc1ccc(Br)c2ccccc12)N/N=C/c1ccccn1 | inconclusive: -46.6%
28 | Cc1ccc(-c2cc(C(F)(F)F)n3ncc(-c4ccc(Cl)cc4)c3n2)cc1 | inactive: -11.4%
29 | CC1CCN(C(=O)C(C)Sc2nc(-c3ccccc3)cc(C(F)(F)F)n2)CC1 (stereo unspecified) | inconclusive: -42.3%
30 | Cc1cccc(N2CCN(C(=O)c3cc4ccc5cccnc5c4[nH]3)CC2C)c1 (stereo unspecified) | active: -61.5%
31 | CCOC(=O)C(=Cc1cc(=O)c(OC)co1)C(=O)OCC | inconclusive: -59.3%
32 | Oc1ccccc1C1SC(c2ccccc2O)SC(c2ccccc2O)S1 (stereo unspecified) | inconclusive: -47.7%
33 | CSc1ccccc1NC(=O)C(=O)c1c[nH]c2ccccc12 | active: -60%
34 | COc1ccc(N2CC(NS(=O)(=O)c3cccs3)CC2=O)cc1OC (stereo unspecified) | active: -82.1%
35 | O=C(COCc1cc(-c2cccs2)on1)Nc1cc(C(F)(F)F)ccc1Cl | inconclusive: -40.8%
36 | CSc1ccccc1NC(=O)CN(C)C(=O)COc1ncnc2ccccc12 | inactive: -7.96%
37 | CCc1cc(OCCCCNCc2ccccc2)ccc1Cl | inconclusive: -42.7%
38 | Cc1ccc(S(=O)(=O)N2CCC(C(=O)NC3CCCC3)CC2)cc1Cl | inactive: 7.42%
39 | CC(C)C[C@H](NC(=O)N1CCn2c1nc1ccccc12)C(=O)NC1CCCCC1 | active: -66.9%
40 | Clc1ccc(CN2CCc3c([nH]c4ccccc34)C2)cc1Cl | active: -64.3%
41 | Cc1c(O)cccc1C(=O)N[C@@H](CSc1ccccc1)[C@H](O)CN1C[C@H]2CCCC[C@H]2C[C@H]1C(=O)NC(C)(C)C | inconclusive: -40.3%
42 | O=C(COc1coc(CN2CCc3ccccc32)cc1=O)N1CCCCC1 | inconclusive: -54.3%
43 | COc1ccc(/C=C2\SC(=S)N(N3C(=O)CCC3=O)C2=O)cc1O | inconclusive: -47.8%
44 | COCCOC(=O)c1c(NC(=O)CNC2CCCc3ccccc32)sc(C(N)=O)c1C (stereo unspecified) | inconclusive: -48.6%

Row | SMILES | activity change, negative = inhibition
45 | Cc1csc(NC(=O)C(C)Oc2ccc(Br)cc2)n1 (stereo unspecified) | inconclusive: -51.1%
46 | COc1cccc(CN(C)C(=O)CC23CC4CC(CC(C4)C2)C3)c1OC | inconclusive: -43.7%
47 | Cc1ccc(NC(=O)COCc2cc(-c3cccs3)on2)cc1Cl | inconclusive: -40.8%
48 | COC(=O)c1nc(N)sc1C | inconclusive: -41.6%
49 | O=S(=O)(c1ccc(=S)[nH]c1)N1CCN(Cc2ccccc2)CC1 | active: -66.3%
50 | CN=c1scc(-c2cccs2)n1/N=C/c1ccc(O)c(O)c1O | active: -63.3%
51 | O=C(NN1C(=O)/C(=C/c2ccc(O)c([N+](=O)[O-])c2)SC1=S)c1ccccc1Cl | inconclusive: -57.9%
52 | Oc1c(Cl)cc(Cl)cc1Sc1cc(Cl)cc(Cl)c1O | inconclusive: -47.4%
53 | COc1ccc(C2c3c(oc4ccccc4c3=O)C(=O)N2c2nc(C)c(C)s2)cc1 (stereo unspecified) | inactive: 2.31%
54 | Cc1ccccc1CNC(=O)CCSCc1cnn(-c2ccccc2)c1-n1cccc1 | inconclusive: -46.3%
55 | COc1ccc(NC(=O)C(NS(=O)(=O)c2cccc3nsnc23)c2ccccc2)cc1 (stereo unspecified) | inactive: -14.3%
56 | Cc1ccc(O)c([C@H](CCN(C(C)C)C(C)C)c2ccccc2)c1 | inconclusive: -41.3%
57 | CCc1ccc(C(=O)C(C)OC(=O)c2cccc(S(=O)(=O)N3CCOCC3)c2)cc1 (stereo unspecified) | inconclusive: -52.8%
58 | CC1=C(SCc2ccccc2)C(=O)c2ccccc2C1=O | inconclusive: -53.2%
59 | CCOC(=O)C1CCCN(S(=O)(=O)c2ccccc2)C1 (stereo unspecified) | inactive: -12.9%
60 | BrC(=C\c1ccccc1)/C=N/Nc1ccc2nncn2n1 | inconclusive: -41.4%
61 | Cc1ccc(Nc2nc(-c3cccnc3)nc3ccccc23)cc1 | inconclusive: -60%
62 | COc1ccc(C(=O)N/C(=C/c2ccco2)C(=O)NC2CCS(=O)(=O)C2)cc1 (stereo unspecified) | inconclusive: -49.9%
63 | CSc1ccc(CCNC(=O)C2CCN(c3ncnc4c3nc3n4CCCCC3)CC2)cc1 | inactive: 0.387%
64 | O=C(COC(=O)Cc1ccc(Br)cc1)NC1CCCCCC1 | inconclusive: -42.7%
65 | COc1ccc(CCNC(=O)CN(C)S(=O)(=O)c2ccc3nc(C)sc3c2)cc1OC | inconclusive: -47%
66 | O=[N+]([O-])c1c(Nc2ccccc2O)cc(Cl)c2nonc12 | active: -75.1%

Row | SMILES | activity change, negative = inhibition
67 | CCCOc1ccc(CN(CCC#N)C(=S)NC(=O)c2ccccc2)cc1 | inconclusive: -54.6%
68 | CC(C)Cc1nnc(NC(=O)c2cccc(S(=O)(=O)N3CCOCC3)c2)s1 | inactive: -4.21%
69 | O=C(N/N=C\c1ccc(CNS(=O)(=O)c2ccccc2)o1)C(=O)Nc1ccc(F)cc1 | inconclusive: -55.7%
70 | Cc1noc(/C=C/c2ccco2)c1S(=O)(=O)N1CCC(C(=O)N2CCc3ccccc3C2)CC1 | inconclusive: -43.5%
71 | Cc1cc(OCC(=O)NCCN2CCOCC2)ccc1Br | inactive: 1.19%
72 | CC(=O)/C(=N/Nc1ccccc1)Sc1nnc(CCc2ccccc2)n1-c1ccccc1 | inconclusive: -42.5%
73 | COc1ccc(Br)cc1/C=C/C(=O)OCC(=O)NCCc1ccc(S(N)(=O)=O)cc1 | inconclusive: -44.3%
74 | CC(/C=N\NC(=O)c1ccc2c(c1)OCO2)c1ccccc1 (stereo unspecified) | inactive: -7.69%
75 | O=C(COC(=O)c1n[nH]c2ccccc12)NC(=O)NC1CCCC1 | inconclusive: -43.9%
76 | S=c1[nH]nc(-c2cc(-c3ccccc3)n[nH]2)n1/N=C/C=C/c1ccco1 | inconclusive: -42.7%
77 | Cc1ccc(/C=N/NC(=O)C2=NNC(c3ccccc3)(c3ccccc3)C2)c(O)c1 | inconclusive: -53.6%
78 | O=C(NC(=S)Nc1cccc2c(O)cccc12)c1cccc(Br)c1 | inconclusive: -54.9%
79 | COc1ccc(CCN2CC(C(=O)N(C)CCOc3ccccc3)CCC2=O)cc1 (stereo unspecified) | inconclusive: -56.4%
80 | O=C(CN1C(=O)C(=O)c2ccccc21)OCN1C(=O)c2ccccc2C1=O | inconclusive: -53.8%
81 | COc1ccc(CCNC(=O)c2ccc(CS(=O)(=O)Cc3cccc(C)c3)o2)cc1OC | inconclusive: -46.7%
82 | O=C(CCCCCn1c(=S)[nH]c2ccccc2c1=O)NCc1ccc2c(c1)OCO2 | active: -62.1%
83 | N#Cc1cn(-c2ccccc2)nc1-c1cc2ccccc2oc1=O | inactive: -17.6%
84 | COc1ccccc1OCC(=O)NC1CC(C)(C)NC(C)(C)C1 | inactive: 3.06%
85 | O=C(CCN=C1NS(=O)(=O)c2ccccc21)OCc1cccc(Cl)c1 | inconclusive: -42.6%
86 | Cc1cnc2c(c1SCC(=O)Nc1ccc(F)cc1F)c(=O)n(C)c(=O)n2C | inactive: -4.3%
